{
  "source": "PubChem BioAssay (Tox21)",
  "note": "Inconclusive results, whose numbers are uncertain, are shown with a selection of clear calls. Entries that show only a call come without a potency. Potencies of inconclusive entries are doubtful fits and often do not repeat. Calls of active or inactive are those of the source. Unless noted, calls follow the shape of the dose curve; as a rule, active = well fitted curve in the direction sought with a large enough effect; inconclusive = small, poorly fitted or top-dose-only effect, or another doubt; inactive = no such curve, though single readings can be large; an effect the other way counts as inactive or inconclusive. Potency is read from the fitted curve at half-maximal effect; tags tell the direction and shape of the fitted curve.",
  "data": [
    {"molecular_target": "Estrogen receptor (Homo sapiens) (UniProt P03372)", "sequence (P03372 whole entry, looked up)": "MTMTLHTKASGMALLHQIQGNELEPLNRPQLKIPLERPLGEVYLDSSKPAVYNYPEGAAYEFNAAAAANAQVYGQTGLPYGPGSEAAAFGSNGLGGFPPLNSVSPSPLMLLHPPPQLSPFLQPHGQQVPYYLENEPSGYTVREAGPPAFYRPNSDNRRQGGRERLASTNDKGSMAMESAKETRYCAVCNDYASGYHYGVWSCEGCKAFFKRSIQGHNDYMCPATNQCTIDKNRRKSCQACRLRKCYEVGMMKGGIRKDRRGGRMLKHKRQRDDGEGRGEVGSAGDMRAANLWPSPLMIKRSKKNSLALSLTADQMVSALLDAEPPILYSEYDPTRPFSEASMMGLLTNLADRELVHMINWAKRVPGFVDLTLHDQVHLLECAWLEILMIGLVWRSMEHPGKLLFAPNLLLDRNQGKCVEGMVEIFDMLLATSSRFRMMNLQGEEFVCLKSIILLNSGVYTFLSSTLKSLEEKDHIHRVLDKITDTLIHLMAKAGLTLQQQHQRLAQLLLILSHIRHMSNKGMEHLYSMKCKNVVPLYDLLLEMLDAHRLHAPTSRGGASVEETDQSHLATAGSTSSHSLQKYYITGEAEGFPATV", "assay": "qHTS assay to identify small molecule antagonists of the estrogen receptor alpha (ER-alpha) signaling pathway using the BG1 cell line in the presence of 0.1 nM 17-beta-estradiol (AID 1259244; active = well fitted curve in the direction sought with a large enough effect in the repeat runs; inconclusive = weak or mixed curves; inactive = no such curve, though single readings can be large; an effect the other way counts as inactive or inconclusive; also: nearly all actives have a fitted effect of over 50% in size)", "conditions": "VM7Luc4E2 (BG1) ERE-luciferase, antagonist mode, 0.1 nM E2, 22 h; series mostly up to 92.4 µM", "procedure,_shortened": "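Cells: VM7Luc4E2, endogenous ER-alpha, 4x ERE-luc stable. Pre-culture 5 d, phenol red-free, charcoal-stripped FBS. Plated 24 h, compound + E2 0.1 nM final, 22 h 37C/5% CO2. Readout ONE-Glo luminescence.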", "values": [
      {"smiles": "CC(=O)C(=O)CC(C)C", "Potency": "inactive"},
      {"smiles": "O=C(c1ccccc1)c1ccc(O)cc1", "Potency": "inconclusive: 61.8 µM [inhibitor, single point]"},
      {"smiles": "CN(C)C(C)(C)CO", "Potency": "inactive"},
      {"smiles": "CCCOc1ccc2c(c1)CC[C@@H]1[C@@H]2CC[C@]2(C)C(OC)CC[C@@H]12", "note": "(stereo partly specified)", "Potency": "inactive"}
    ]},
    {"test_system": "not listed separately", "assay": "qHTS assay to identify small molecule phospholipidosis (PLD) inducers (AID 1259344)", "conditions": "HepG2 phospholipidosis, LipidTOX Red imaging, 24 h; series mostly up to 38.3 µM", "procedure,_shortened": "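HepG2 cells on collagen I, attached 4 h at 37 C, were co-treated with compound and LipidTOX Red dye for 24 h at 37 C, then fixed with paraformaldehyde plus Hoechst 33342 and imaged by high-content microscopy for phospholipid accumulation.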", "values": [
      {"smiles": "CN1CCN(C2=Nc3cc(F)ccc3Cc3ccccc32)CC1", "Potency": "inconclusive: 25.1 µM [activator, partial curve, poor fit]"},
      {"smiles": "CN1C(C(=O)Nc2ccccn2)=C(O)c2sccc2S1(=O)=O", "Potency": "inconclusive: 0.447 µM [activator, single point]"},
      {"smiles": "O=c1cc(O)c(Cl)c[nH]1", "Potency": "inactive"},
      {"smiles": "O=C(O)CNC(=O)c1ccccc1I", "Potency": "inactive"},
      {"smiles": "CN(C)CCOC(c1ccc(Cl)cc1)c1ccccn1", "note": "(stereo unspecified)", "Potency": "inactive"},
      {"smiles": "CC(=O)N[C@@H](Cc1ccc(O)cc1)C(=O)O", "Potency": "inactive"},
      {"smiles": "CN(C)CCOC(=O)C(c1ccccc1)C1(O)CCCC1", "note": "(stereo unspecified)", "Potency": "inactive"}
    ]}
  ]
}
